# The supplement of paper PMC12217912
# This is one part of the list. The full chains were built here from the parent and the listed change. Values near 0.05 are background.
# B1: TEV protease; numbered along this chain (parent)
# chain: MGESLFKGPRDYNPISSSICHLTNESDGHTTSLYGIGFGPFIITNKHLFRRNNGTLVVQSLHGVFKVKDTTTLQQHLVDGRDMIIIRMPKDFPPFPQKLKFREPQREERICLVTTNFQTKSMSSMVSDTSCTFPSGDGIFWKHWIQTKDGQCGSPLVSTRDGFIVGIHSASNFTNTNNYFTSVPKNFMELLTNQEAQQWVSGWRLNADSVLWGGHKVFMVKPEEPFQPVKEATQL
# Variants of: B1
# Assay: raw area under fraction-flipped curve 0-4 h after induction (AUC4h, not background-subtracted), DNA-recorder readout of cleavage of the substrate (dimensionless); higher = more cleavage of the substrate by the protease variant
# Settings: temperature: 34 °C; time window: 0-4 h after rhamnose induction
# Description: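 In vivo DNA recorder in E. coli TOP10(DE3) ΔrhaA at 34 °C. Each TEVp single-site mutant (parent TEVp 0) is paired with a single-site variant of the 7-mer TEVs (canonical ENLYFQ|S). The substrate sits between flexible linkers in a Bxb1-sfGFP-TEVs-SsrA fusion, so cleavage stabilises Bxb1 and speeds flipping of a recombination array, read by NGS. The value is the raw area under the fraction-flipped curve over 0-4 h after rhamnose induction (AUC4h), with ≥20 reads per time point. It is not background-subtracted; inactive controls average about 0.047.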
# 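Also: Bxb1 expression induced with 0.2% (w/v) L-rhamnose at OD600 near 0.5, cultures sampled hourly, flipped fraction per protease–substrate barcode pair counted by paired-end Illumina sequencing.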
Variant,area with substrate ENLAFQS,area with substrate ENLFFQS,area with substrate ENLHFQS,area with substrate ENLIFQS,area with substrate ENLKFQS,area with substrate ENLNFQS,area with substrate ENLPFQS,area with substrate ENLSFQS,area with substrate ENLTFQS,area with substrate ENLCFQS,area with substrate ENLDFQS,area with substrate ENLEFQS,area with substrate ENLGFQS,area with substrate ENLLFQS,area with substrate ENLMFQS,area with substrate ENLQFQS,area with substrate ENLRFQS,area with substrate ENLVFQS,area with substrate ENLWFQS
T132G,0.0744,0.0784,0.0703,0.088,0.0663,0.0668,0.0227,0.0601,0.0706,,,,,,,,,,
L235M,0.0867,0.096,,0.0849,0.0762,0.0668,,0.0718,,0.0644,0.0584,0.0698,0.104,0.0313,0.0549,0.0752,0.0905,0.0528,0.069
G213K,0.059,0.062,0.061,,0.063,0.0614,0.0702,,,0.0503,0.0717,0.0623,,0.0594,,0.056,0.0666,0.0621,0.0721
F65R,0.0723,0.0795,0.0684,,0.07,0.0654,,0.0534,,0.0732,0.0635,0.041,0.0741,,,0.0704,0.0803,,0.0553
T192P,0.0588,0.0717,0.0656,,0.0766,0.0647,0.0537,0.0567,,,0.0605,0.0716,0.0805,,0.078,0.0813,0.0499,0.054,
P222G,0.0676,0.0647,,0.0761,0.0745,0.0679,0.063,0.0822,,,0.0739,0.0653,,0.0806,0.06,0.0436,0.107,0.0696,
S32N,0.0617,0.0693,0.0656,,0.0589,0.0677,0.0606,0.0585,,0.048,0.0775,0.0637,0.0778,0.0749,,0.0484,,,0.0566
G150F,0.0652,0.0722,0.0587,0.0621,0.0473,0.0616,0.0638,0.0558,,,0.065,0.0572,,0.0326,0.0681,0.0568,0.0592,0.0589,0.0486
T159E,0.0724,0.111,,0.085,0.0837,0.0574,0.0548,0.0674,,,,0.0652,,,,0.0544,0.0804,0.068,
E189D,0.0625,0.0814,0.0719,0.0874,0.0786,0.065,0.0514,0.0633,,0.0648,0.0695,,,0.0596,0.0773,,,,
S18F,0.0698,0.0798,0.0657,0.0856,0.0736,0.0645,0.0569,0.0574,0.0808,0.0647,0.0663,0.0682,0.0709,0.0548,0.0571,0.0663,0.0779,0.096,0.0503
T55E,0.0686,0.0597,0.0703,0.0832,0.0679,0.0505,0.0598,0.0615,,0.0609,0.0579,0.0824,0.0571,,,0.0899,0.0677,0.0839,0.0412
R81I,0.0761,0.0836,0.0619,0.0873,,0.0631,0.0635,0.0713,,,0.0559,,,0.0661,,0.0619,,,0.0604
C20A,0.0886,0.081,0.0762,0.0703,0.0732,0.0719,,,,0.0586,0.0653,,0.0494,0.0735,,0.0821,0.0609,0.0887,0.0644
M122P,0.0635,0.0836,0.0806,0.063,0.0864,0.0798,,0.0651,,0.0835,,0.0355,0.0745,0.0682,,,0.0768,0.0765,0.015
G63F,0.0621,0.0736,0.0736,,0.0669,0.074,0.0455,0.061,,0.0556,0.0786,,,,0.0797,0.0609,0.0787,0.0867,
V210D,0.056,0.0732,,,0.07,0.0656,0.0692,0.0472,,0.0593,0.0612,0.0686,0.0693,0.0415,0.047,,0.0768,,0.0453
V229Y,0.0786,0.105,0.0726,,0.0729,0.0555,0.0467,0.0585,,,0.0612,0.0569,0.0717,0.0558,,0.0642,0.0786,0.0674,0.0715
P94E,0.0511,0.088,0.0641,,0.0838,0.0855,0.0732,,,0.0646,0.0429,0.0731,,0.0687,0.073,,0.0717,0.0764,0.0595
F218S,0.0646,0.0816,0.0595,0.0679,0.0777,,0.0615,,0.0763,,0.0757,0.0612,0.0486,0.0853,,,,,0.0651
T181G,0.0589,0.0702,0.0676,,0.0665,0.066,0.0526,,,0.0851,0.085,0.0536,,,,0.062,0.0485,,0.0696
V113D,0.0551,0.0515,0.0437,0.0517,0.054,0.052,0.056,0.0509,,0.0444,0.0617,0.0543,0.0582,0.058,0.0556,,,,
V165D,0.0549,,,0.0654,0.0694,0.0567,0.0435,,0.0591,,0.0516,,,0.0372,,0.0402,0.0554,0.0423,
K148T,0.0595,0.0391,0.0659,,0.0815,0.0946,0.0564,0.0579,,,0.0711,0.068,,,0.074,0.078,0.0466,0.0589,
P134E,0.0672,0.073,0.0669,0.0925,0.0696,0.0718,0.065,0.0463,,,0.0663,,,0.0568,,0.0638,0.0526,0.0731,
T31R,0.0679,0.07,0.0392,,0.0464,0.0604,,0.06,,0.0732,0.0644,,0.128,,0.0474,,0.0514,,0.0607
